Data taken from the BET-seq Pho4 binding data (Le et al. 2018).
Some of the results follow. The energies were worked out here from pooled read counts, against the library average; single values are noisy.

Molecular target: T1, Pho4 (S. cerevisiae) (UniProt P07270)
T1 sequence: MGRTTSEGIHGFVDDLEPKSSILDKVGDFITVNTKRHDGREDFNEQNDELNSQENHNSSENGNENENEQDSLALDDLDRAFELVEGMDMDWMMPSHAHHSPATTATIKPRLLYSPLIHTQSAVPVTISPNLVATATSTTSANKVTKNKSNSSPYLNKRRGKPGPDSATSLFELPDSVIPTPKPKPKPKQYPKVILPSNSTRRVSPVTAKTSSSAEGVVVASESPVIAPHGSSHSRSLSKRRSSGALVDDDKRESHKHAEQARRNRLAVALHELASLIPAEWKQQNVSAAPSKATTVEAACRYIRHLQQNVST
Experiment: relative binding free energy (BET-seq); higher = weaker binding
Conditions: reference: library average

Sequence | relative binding free energy
TAGCTCACGTGAGTTA | 1.67 kJ/mol
TGACTCACGTGTTGGG | 0.586 kJ/mol
TGGCGCACGTGATAGT | 0.251 kJ/mol
GATTCCACGTGGGGGC | 0.46 kJ/mol
GTGGTCACGTGGCGCT | 0.669 kJ/mol
CAATACACGTGTAGGG | 1.26 kJ/mol
GCGTTCACGTGTTGAT | 1.46 kJ/mol
TACTGCACGTGAGTTG | 0.962 kJ/mol
TGTGGCACGTGATTCG | 0.0837 kJ/mol
TTGTCCACGTGTTGCG | 0.879 kJ/mol
TCTATCACGTGTGTAT | 0.544 kJ/mol
TGGATCACGTGTCGCG | 0.837 kJ/mol
ATAAGCACGTGGAGAA | 0.46 kJ/mol
AATTACACGTGAGGGC | 1.13 kJ/mol
GGGGGCACGTGTTTCC | -0.0418 kJ/mol
CTTGGCACGTGGGAGT | -0.879 kJ/mol
TGTTCCACGTGGGATT | -0.126 kJ/mol
TGGAGCACGTGGAAGT | -0.167 kJ/mol
TGAAGCACGTGGGGGC | -1.38 kJ/mol
GTGGTCACGTGAGTGG | 1.46 kJ/mol
TTTTTCACGTGGTTGG | 1.05 kJ/mol
ATGGGCACGTGAGGCG | 0.418 kJ/mol
ATGTCCACGTGGGGGT | -0.837 kJ/mol

Sequence | relative binding free energy
TTTGTCACGTGGATCG | 0.377 kJ/mol
TATCTCACGTGTTGGA | 0.795 kJ/mol
CGTGGCACGTGTGTAC | -0.251 kJ/mol
TCGTACACGTGGTCGT | 0.167 kJ/mol
GTAGGCACGTGGATAT | -0.586 kJ/mol
CTTGCCACGTGGGGAT | -0.753 kJ/mol
GAGGGCACGTGGGGGT | -0.502 kJ/mol
TGGGGCACGTGCTGGT | -0.753 kJ/mol
GGTTGCACGTGCGGTA | -0.46 kJ/mol
GGCTTCACGTGTGGCG | 1.26 kJ/mol
CGTTCCACGTGGGGGC | -0.0837 kJ/mol
TATCGCACGTGATTTT | -0.0837 kJ/mol
TCAGTCACGTGTGTGT | 0.377 kJ/mol
GGGTCCACGTGGTAAT | 0.46 kJ/mol
TAAGTCACGTGTTGAT | 0.46 kJ/mol
CTGGTCACGTGTGGGT | 0.753 kJ/mol
ATGGACACGTGATGTG | 0.711 kJ/mol
GTTTGCACGTGCGTTA | 0.0837 kJ/mol
TTGGTCACGTGAGTCT | 1.3 kJ/mol
ATAAGCACGTGGTGCT | -1 kJ/mol
GGTAGCACGTGTATAG | 0.167 kJ/mol
GATAGCACGTGTTGGG | -0.167 kJ/mol
GTAGTCACGTGAGCTG | 1.38 kJ/mol

Sequence | relative binding free energy
GTAGTCACGTGGTCGT | 0.126 kJ/mol
ATTAGCACGTGGAGAG | -0.377 kJ/mol
TAGGGCACGTGGCTGT | -0.209 kJ/mol
GCGTGCACGTGGGCGG | -0.46 kJ/mol
GTATTCACGTGAGTTA | 1.76 kJ/mol
TCTTGCACGTGTATTT | 0.167 kJ/mol
GGGGACACGTGACGAG | 0.879 kJ/mol
GGAGGCACGTGTGTAA | -0.377 kJ/mol
GGTTTCACGTGTGGAT | 1.26 kJ/mol
ATCATCACGTGGAGGT | 0.502 kJ/mol
TCTGACACGTGTTTGG | 0.628 kJ/mol
TGGGGCACGTGTTTGG | -0.377 kJ/mol
TGTACCACGTGATGGT | 0.0418 kJ/mol
AGATGCACGTGTTCTT | -0.586 kJ/mol
CTACACACGTGTGGGT | 0.418 kJ/mol
TGCATCACGTGGGTTA | 0.167 kJ/mol
TAGCTCACGTGGGGTA | -0.293 kJ/mol
AGATCCACGTGTTTTT | 0.377 kJ/mol
ATTAGCACGTGTCTTT | 0.335 kJ/mol
GTGTCCACGTGGGCAG | -0.293 kJ/mol
TTCTTCACGTGGGCGT | 0.293 kJ/mol
TTTTCCACGTGAGTTG | 1.17 kJ/mol
TGAGTCACGTGTTGCA | -0.0418 kJ/mol

Sequence | relative binding free energy
TAGAACACGTGTTATT | 0.0418 kJ/mol
TTGGTCACGTGATGCT | 0.753 kJ/mol
TTGGTCACGTGTCATA | 0.251 kJ/mol
GCGGTCACGTGCTGGT | -0.251 kJ/mol
ATGGTCACGTGTGGAT | 0.544 kJ/mol
ATAGGCACGTGTCAGT | -0.0418 kJ/mol
GAGGTCACGTGTATAA | 0.753 kJ/mol
GGGTGCACGTGTTAAT | 0.335 kJ/mol
ATAGACACGTGATGTT | 0.126 kJ/mol
TTGAACACGTGTGGGT | 0.544 kJ/mol
TTTAACACGTGTAGAG | 0.711 kJ/mol
AATGGCACGTGGGACG | -0.669 kJ/mol
GGTTCCACGTGCGGGG | 0.209 kJ/mol
AGGGGCACGTGGGATG | -0.711 kJ/mol
CTGTGCACGTGAGATG | 0.377 kJ/mol
GTTGTCACGTGGGTAC | 0.0418 kJ/mol
TAAGTCACGTGGAATG | 0.628 kJ/mol
GTTTCCACGTGTTTGC | 0.711 kJ/mol
TGTAGCACGTGTAGAG | -0.293 kJ/mol
TTCTTCACGTGAATAT | 2.22 kJ/mol
CATGACACGTGGGGGA | -0.544 kJ/mol
GTTATCACGTGTGAAG | 1.17 kJ/mol
TACTTCACGTGGCGTT | 0.46 kJ/mol

Sequence | relative binding free energy
ATGTTCACGTGCTGGG | 0.753 kJ/mol
AGTATCACGTGTCTTT | 1 kJ/mol
GTCGTCACGTGACGGG | 1 kJ/mol
TTATTCACGTGACTTT | 0.962 kJ/mol
CTTAACACGTGGTGAG | 0.0418 kJ/mol
TGGAGCACGTGTAACG | 0.126 kJ/mol
GTATCCACGTGATAGG | 0.962 kJ/mol
TGTTACACGTGTTGGA | 0.502 kJ/mol
CTTGCCACGTGGTAGG | -0.711 kJ/mol
GGAGTCACGTGTGAGG | 0.837 kJ/mol
ATGAGCACGTGAGGGG | 0.502 kJ/mol
GGTAACACGTGGCTGA | 0.0837 kJ/mol
TGTGTCACGTGGTCAG | -0.711 kJ/mol
GTCGTCACGTGGTTTG | 0 kJ/mol
TTTTACACGTGCTTTG | 0.0418 kJ/mol
TTAGTCACGTGTGTCA | 0 kJ/mol
TTAATCACGTGTCAGG | 0.669 kJ/mol
TGCTGCACGTGTTTGT | 0.0418 kJ/mol
ATCTACACGTGGTCGT | 1.13 kJ/mol
TACTGCACGTGTATTT | 0.167 kJ/mol
AATATCACGTGTAGTT | 0.586 kJ/mol
GTGTTCACGTGGAAAA | 2.26 kJ/mol
GCGGGCACGTGGTTTA | -0.251 kJ/mol
